From the RNAGym collection of RNA variant scans (doi:10.1093/nar/gkz1192)
The source gives no read counts; variants with many changes may rest on few reads.

B1: CPEB3 Ribozyme (parent)
chain: UAACAGGGGGCCACAGCAGAAGCGUUCACGUCGCAGCCCCUGUCAGAUUCUGGUGAAUCUGCGAAUUCUGCUGUAUAUCUC

Variants of: B1
Test: self-cleavage, relative activity (ratio to wild type); higher = more cleavage; in vitro, sequencing
Procedure, shortened: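 Barcoded CPEB3 ribozyme mutants, produced by rounds of error-prone PCR, self-cleaved while being transcribed with T7 RNA polymerase for 5 hours at 37°C and during a subsequent 15 min DNase I step before EDTA was added. Sequencing of template-switched cDNA on Illumina gave cleaved and total reads, and DNA sequencing assigned barcodes to variants. Each variant's relative activity is its cleaved/total read fraction divided by the unmutated ribozyme's fraction, averaged across three batches. A variant needed a minimum of 5 reads.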

With UAACAGGGGGCCACAGCAGAAGCGCUCGCGUCGCAGCCCCUGUCAGAUUCUGGUGAAUCAGCGAGUCCUGCUGUGUAUCUC [U25C A28G U60A A65G U67C A75G] as the variant, how does the self-cleavage read?
Its self-cleavage is 0.13.

For UAACAGGGGGCCACAGCAGAAGCGCUCGCGUCGCAGCCCCUGUCAGAUUCUGGUGAAUCCGCGAAUUCUGCUGUAUAACUC [U25C A28G U60C U78A], which self-cleavage is on record?
Its self-cleavage is 0.19.

With UAACAGGGGGCCACAGCAGAAGCGCUCGCGUCGCAGCCCCUGUCAGAUUCUGGUGAAUCUGCGAAAUCUGCUGUAUAUCUC [U25C A28G U66A] as the variant, how does the self-cleavage read?
The self-cleavage was 0.47.

With UAACAGGGGGCCACAGCAGAAGCGCUCGCGUCGCAGCCCCUGUCAGAUUCUGGUGAAUCUGCGAAUCCUGCUGUAUACCUC [U25C A28G U67C U78C] as the variant, how does the self-cleavage read?
The self-cleavage was 0.06.

Which self-cleavage does the source give for UAACAGGGGGCCACAGCAGAAGCGCUCGCGUCGCAGCCCCUGUCAGAUUCUGGUGAAUCUGCGAAUUCCGCUGUAUAUCUC [U25C A28G U69C] here?
Its self-cleavage is 0.27.

Which self-cleavage does the source give for UAACAGGGGGCCACAGCAGAAGCGCUCGCGUCGCAGCCCCUGUCAGAUUCUGGUGAAUCUGCGAAUUCUGCAGUGUAUCUC [U25C A28G U72A A75G] here?
The self-cleavage was 0.07.

Which self-cleavage does the source give for UAACAGGGGGCCACAGCAGAAGCGCUCGCGUCGCAGCCCCUGUCAGAUUCUGGUGAAUCUGCGAAUUCUGCAGUAUACCUC [U25C A28G U72A U78C] here?
Its self-cleavage is 0.14.

Which self-cleavage does the source give for UAACAGGGGGCCACAGCAGAAGCGCUCGCGUCGCAGCCCCUGUCAGAUUCUGGUGAAUCUGCGAAUUCUGCCGUAUAUCUC [U25C A28G U72C] here?
The self-cleavage was 0.31.

For UAACAGGGGGCCACAGCAGAAGCGCUCGCGUCGCAGCCCCUGUCAGAUUCUGGUGAAUCUGCGAAUUCUGCGGUAUAUCUC [U25C A28G U72G], which self-cleavage is on record?
Its self-cleavage is 0.11.

For UAACAGGGGGCCACAGCAGAAGCGCUCUCGUCGCGGCCCCUGUCAGAUUCUGGUGAAUCCGCGAAUUCUGCUGUAUAUCUC [U25C A28U A35G U60C], which self-cleavage is on record?
The self-cleavage was 0.14.

With UAACAGGGGGCCACAGCAGAAGCGCUCUCGUCGCAGCCCCUGUCUGAUUCUGGUGAAUCUGCGAAUUCUGCUGAAUAUCUC [U25C A28U A45U U74A] as the variant, how does the self-cleavage read?
Its self-cleavage is 0.18.

With UAACAGGGGGCCACAGCAGAAGCGCUCUCGUCGCAGCCCCUGUCAGGUUCUGGUGAAUCUGCGAAUUCUGCUGUAUAUCUC [U25C A28U A47G] as the variant, how does the self-cleavage read?
Its self-cleavage is 0.17.

With UAACAGGGGGCCACAGCAGAAGCGCUCUCGUCGCAGCCCCUGUCAGGUUCUGGUGAAUCUGCGAAUUCUGCUGUAUACCUC [U25C A28U A47G U78C] as the variant, how does the self-cleavage read?
Its self-cleavage is 0.15.

With UAACAGGGGGCCACAGCAGAAGCGCUCUCGUCGCAGCCCCUGUCAGAUUCUGGUGGAUCUGUGGAUUCCGCUGUAUAUCAC [U25C A28U A56G C62U A64G U69C U80A] as the variant, how does the self-cleavage read?
The self-cleavage was 0.06.

For UAACAGGGGGCCACAGCAGAAGCGCUCUCGUCGCAGCCCCUGUCAGAUUCUGGUGGAACUGCGAAUUCUGCUAUAUAUCUC [U25C A28U A56G U58A G73A], which self-cleavage is on record?
Its self-cleavage is 0.08.

Which self-cleavage does the source give for UAACAGGGGGCCACAGCAGAAGCGCUCUCGUCGCAGCCCCUGUCAGAUUCUGGUGUAUCUGCGAAUUCUGCUGAAUAUCUC [U25C A28U A56U U74A] here?
Its self-cleavage is 0.07.

For UAACAGGGGGCCACAGCAGAAGCGCUCUCGUAGCAGCCCCUGUCAGACUCUGGUGAAUCUGCGAAUUCUGCUGUAUACCUC [U25C A28U C32A U48C U78C], which self-cleavage is on record?
The self-cleavage was 0.3.

Which self-cleavage does the source give for UAACAGGGGGCCACAGCAGAAGCGCUCUCGUGGCAGCCCCUGUCAGAUUCUGGCGAAUCUGCGUUUUCUGCUGUAUAUCUC [U25C A28U C32G U54C A64U A65U] here?
The self-cleavage was 0.05.

For UAACAGGGGGCCACAGCAGAAGCGCUCUCGUCGCAGCUCCUGUCAGAUUCUGGUGAAUCUGCGAAUUCUGCUGUAUAUCUU [U25C A28U C38U C81U], which self-cleavage is on record?
Its self-cleavage is 0.08.

For UAACAGGGGGCCACAGCAGAAGCGCUCUCAUCGCUGCCCCUGUCAGAUUCCGGUGAAUCUGCGAAUUCAGCUGUAUAUCUC [U25C A28U G30A A35U U51C U69A], which self-cleavage is on record?
The self-cleavage was 0.09.

Which self-cleavage does the source give for UAACAGGGGGCCACAGCAGAAGCGCUCUCGUCCCAGCCCCGGUCCGAUUCUGGUGAACCUGCGAAUUCCGCUGUAUAUCUC [U25C A28U G33C U41G A45C U58C U69C] here?
The self-cleavage was 0.07.

For UAACAGGGGGCCACAGCAGAAGCGCUCUCGUCGCAGCCCCUGUCAGAUUCUCGUGAAUCUGCGAAUUCUGCUGUAUAUCUC [U25C A28U G52C], which self-cleavage is on record?
Its self-cleavage is 0.09.

For UAACAGGGGGCCACAGCAGAAGCGCUCUCGACGCAGCCCCUGUCAGAUUCAGGUGAAUCCGCGAAUUCUGCUGUAUACCUC [U25C A28U U31A U51A U60C U78C], which self-cleavage is on record?
The self-cleavage was 0.08.

For UAACAGGGGGCCACAGCAGAAGCGCUCUCGACGCAGCCCCUGUCAGAUUCUGGUGAAUCUGCGAACCCUGCUGUAUAUCUC [U25C A28U U31A U66C U67C], which self-cleavage is on record?
Its self-cleavage is 0.06.

For UAACAGGGGGCCACAGCAGAAGCGCUCUCGUCGCAGCCCCUGACAGAUUCUGGUGAAUCUGCGAAUUCAGCAGUAUAUCUC [U25C A28U U43A U69A U72A], which self-cleavage is on record?
The self-cleavage was 0.08.

For UAACAGGGGGCCACAGCAGAAGCGCUCUCGUCGCAGCCCCUGCCAGAUUCUGGUGAAUCUGCGAGUUCUGCUGUAUAUCUC [U25C A28U U43C A65G], which self-cleavage is on record?
Its self-cleavage is 0.54.

For UAACAGGGGGCCACAGCAGAAGCGCUCUCGUCGCAGCCCCUGUCAGACUCUCGCGAAUCUGCGAAUUCUGCUGUAUAUCUC [U25C A28U U48C G52C U54C], which self-cleavage is on record?
The self-cleavage was 0.14.

With UAACAGGGGGCCACAGCAGAAGCGCUCUCGUCGCAGCCCCUGUCAGAUACUGGUGAAUCUGCGAAUUCUGCUGUAUAUCUC [U25C A28U U49A] as the variant, how does the self-cleavage read?
The self-cleavage was 0.39.

For UAACAGGGGGCCACAGCAGAAGCGCUCUCGUCGCAGCCCCUGUCAGAUUCCGGUGAAUCUGCGAAUUCUGCUGUAUAUCUC [U25C A28U U51C], which self-cleavage is on record?
The self-cleavage was 0.11.

For UAACAGGGGGCCACAGCAGAAGCGCUCUCGUCGCAGCCCCUGUCAGAUUCUGGUGAAUCUGCGAACUCUGCUGUAUAUCUC [U25C A28U U66C], which self-cleavage is on record?
The self-cleavage was 0.13.

Which self-cleavage does the source give for UAACAGGGGGCCACAGCAGAAGCGCUCUCGUCGCAGCCCCUGUCAGAUUCUGGUGAAUCUGCGAAUCCUGCUGUAUUUCCC [U25C A28U U67C A77U U80C] here?
Its self-cleavage is 0.09.

For UAACAGGGGGCCACAGCAGAAGCGCUCACGUCGCCGCCCCUGUCAAAUUCUGGUGAAUCUGCGAAUUCUGCUGUAUAUCUC [U25C A35C G46A], which self-cleavage is on record?
Its self-cleavage is 0.2.

With UAACAGGGGGCCACAGCAGAAGCGCUCACGUCGCCGCCCCUGUCAGAUUCUGGUGAAUCUGCGAAUUCUAUUGUAUAUCUC [U25C A35C G70A C71U] as the variant, how does the self-cleavage read?
Its self-cleavage is 0.13.

For UAACAGGGGGCCACAGCAGAAGCGCUCACGUCGCCGCCCCCGUCAGAUCCUGGUGAAUCUGCGAAUUCUGCUGUAUAUCUC [U25C A35C U41C U49C], which self-cleavage is on record?
The self-cleavage was 0.06.
